# Among all 310,000 compounds or so, about 2,200 (0.71%) showed an effect of 50% or more. Effects have a minus sign here. Some of the results follow.
# Target: human ether-à-go-go-related gene (hERG) potassium channel (human, UniProt Q12809)
# Test: primary screen, population patch clamp on CHO cells stably expressing hERG
# Sequence of human ether-à-go-go-related gene (hERG) potassium channel (Q12809 whole entry, looked up): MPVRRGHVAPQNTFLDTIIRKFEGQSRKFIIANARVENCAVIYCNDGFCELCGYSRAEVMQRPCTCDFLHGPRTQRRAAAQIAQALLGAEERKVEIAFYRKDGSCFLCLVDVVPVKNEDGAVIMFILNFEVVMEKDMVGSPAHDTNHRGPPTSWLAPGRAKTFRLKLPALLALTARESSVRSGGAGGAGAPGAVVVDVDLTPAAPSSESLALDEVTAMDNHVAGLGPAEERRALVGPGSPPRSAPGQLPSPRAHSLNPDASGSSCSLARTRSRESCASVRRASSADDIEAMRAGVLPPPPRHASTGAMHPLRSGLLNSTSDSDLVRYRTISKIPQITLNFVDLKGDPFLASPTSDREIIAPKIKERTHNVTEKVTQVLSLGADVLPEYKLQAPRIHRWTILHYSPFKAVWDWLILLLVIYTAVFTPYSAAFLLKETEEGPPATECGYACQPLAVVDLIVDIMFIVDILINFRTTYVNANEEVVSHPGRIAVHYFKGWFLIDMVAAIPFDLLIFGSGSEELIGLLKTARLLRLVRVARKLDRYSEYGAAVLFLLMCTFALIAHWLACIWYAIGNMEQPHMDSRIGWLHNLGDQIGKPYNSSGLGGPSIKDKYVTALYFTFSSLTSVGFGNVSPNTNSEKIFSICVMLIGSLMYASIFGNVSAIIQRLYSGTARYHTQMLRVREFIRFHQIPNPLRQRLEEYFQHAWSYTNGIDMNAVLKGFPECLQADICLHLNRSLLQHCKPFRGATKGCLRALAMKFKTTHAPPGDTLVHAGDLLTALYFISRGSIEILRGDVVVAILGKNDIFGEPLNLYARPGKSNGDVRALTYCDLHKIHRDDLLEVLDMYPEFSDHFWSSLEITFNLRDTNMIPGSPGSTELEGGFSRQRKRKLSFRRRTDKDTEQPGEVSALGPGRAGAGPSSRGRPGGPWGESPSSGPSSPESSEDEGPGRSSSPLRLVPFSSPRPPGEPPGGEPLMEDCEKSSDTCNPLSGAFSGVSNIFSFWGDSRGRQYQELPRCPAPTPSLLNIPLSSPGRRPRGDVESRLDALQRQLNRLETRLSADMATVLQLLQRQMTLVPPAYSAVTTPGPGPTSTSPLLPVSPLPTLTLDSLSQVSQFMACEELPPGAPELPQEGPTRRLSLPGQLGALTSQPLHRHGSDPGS
row,Compound,"hERG current change (%, negative = inhibition) at 1uM"
1,COC(=O)c1nn(-c2ccc(Cl)cc2)c(=O)cc1Sc1ccccn1,-5.93%
2,CCOC(=O)c1c(N2C(=O)Nc3ccccc3N2O)n[nH]c1-c1cccc(Cl)c1,4.27%
3,Cc1cc(C)cc(N(CC(=O)Nc2ccc(C)cc2Cl)S(=O)(=O)c2c(C)[nH]c(=O)[nH]c2=O)c1,18.1%
4,Cc1ccc2c(c1)N(CCCC(=O)NCCC1=CCCCC1)C(=O)CO2,7.55%
5,CCCCc1nc(SCC(=O)N2CCCCC2)c2c(=O)n(C)c(=O)n(C)c2n1,8.92%
6,Cc1ccc(NC(=O)c2nc[nH]c2C(=O)N2CCC(C)CC2)cc1,11.3%
7,Cn1nc(-c2ccc(OCC(=O)Nc3cccnc3)cc2)c2ccccc2c1=O,-0.709%
8,c1ccc2sc(Cc3nnc4n3CCCCC4)nc2c1,1.69%
9,COCc1[nH]nc2c1C1(C(=O)Nc3ccc(F)cc31)C(C#N)=C(N)O2 (stereo not drawn),-0.547%
10,CC1(c2nnc(Cc3ccccc3)o2)CC(c2cccc(Cl)c2)=NO1 (stereo not drawn),4.84%
11,CCc1cccc2sc(NC(=O)C3CC3)nc12,1.21%
12,COc1ccc(C(=O)Nc2ccc(S(=O)(=O)N3CCCCC3)cc2)cc1,6.08%
13,CC(C)CC(=O)Nc1ccc(C(=O)CN2CCC(C)CC2)cc1,5.4%
14,COc1ccc2nc(NC(=O)c3ccccc3O)sc2c1,16.6%
15,O=c1c(O)c(-c2cc(O)c(O)c(O)c2)oc2cc(O)cc(O)c12,14.6%
16,O=C(O)CCC(=O)NNC(=O)CCC(=O)NCc1ccccc1,12.5%
17,CCCCCCNC(=O)CNC(=S)N(Cc1cccs1)C1CCCCC1,14.6%
18,O=S(=O)(Nc1ccccc1F)c1ccc(Cl)nc1,3.81%
19,Cc1ccc(C)c(NC(=O)c2sc(Cl)nc2-c2ccccc2)c1,10.5%
20,O=C(Nc1ccc(F)c(F)c1)NC1CCCCC1,10.4%
21,CC(C)c1ccc(N2C(=O)C(Cl)=C(N3CCOCC3)C2=O)cc1,14.8%

row,Compound,"hERG current change (%, negative = inhibition) at 1uM"
1,COc1cccc(NC(=O)Nc2cccc(C(=O)O)c2)c1,16.4%
2,CCC(C)(C)NC(=O)C(c1cccc(OC)c1OC)N(CC(C)C)C(=O)CCC(=O)Nc1cc(C)on1 (stereo not drawn),2.68%
3,COc1cccc(CCC(=O)Nc2cc3c(cc2C(=O)O)OCCCO3)c1OC,8.98%
4,COC(=O)c1cc(OCC(=O)NC2CCCc3ccccc32)cc(C(=O)OC)c1 (stereo not drawn),9.79%
5,COc1ccc(-c2csc(NC(=O)c3ccc(C(C)(C)C)cc3)c2C(=O)O)cc1,16.3%
6,NC(=O)c1c(NC(=O)CN2CCCC2)sc2c1CCCC2,7.12%
7,CCOC(=O)c1ccc(NC(=O)Nc2c(C)n(C)n(-c3ccccc3)c2=O)cc1,6.5%
8,CCOc1ccc(C(=O)NC(C(=O)NCCc2ccc(S(N)(=O)=O)cc2)C(C)C)cc1 (stereo not drawn),6.18%
9,Cn1c(N)c(C(=O)COC(=O)/C=C/c2ccccc2Cl)c(=O)n(C)c1=O,6.57%
10,COc1ccc2oc(C(=O)N(C)CCOc3ccccc3)c(C)c2c1,6.38%
11,CN(Cc1ccccc1)C(=O)c1cccc(NC(=O)c2ccco2)c1,-0.649%
12,O=C(NC1C2CC3CC(C2)CC1C3)c1ccc(N2CCNCC2)c([N+](=O)[O-])c1 (stereo not drawn),9.62%
13,Cc1c(C(=O)NC2CCN(Cc3ccccc3)C2)oc2ccc(Br)cc12 (stereo not drawn),13.5%
14,CC(/C=C1\SC(=S)N(NC(=O)c2cccc(O)c2)C1=O)=C\c1ccccc1,13.6%
15,CCOc1ccc(C(=O)NCCC2=CCCCC2)cc1OCC,9.23%
16,O=C(c1ccccc1NS(=O)(=O)c1cccc2cccnc12)N1CCOCC1,6.18%
17,Cc1cc(C)c(C)c(S(=O)(=O)N2CCN(c3ncnc4sc(C)c(C)c34)CC2)c1C,11.8%
18,Cn1c(=O)c2c(nc(SCCN3CCCCC3)n2Cc2ccc(Cl)cc2)n(C)c1=O,-48.9%
19,COc1ccccc1NC(=O)c1ccc(NC(=O)CSc2n[nH]c(N)n2)cc1,7.54%
20,CCCc1cc(C(=O)OCC(=O)N(CCC)c2c(N)n(Cc3ccccc3)c(=O)[nH]c2=O)sc1C,1.93%
21,CCOc1ccc(C(=O)OCC(=O)NCCCc2ccccc2)cc1,6.02%

row,Compound,"hERG current change (%, negative = inhibition) at 1uM"
1,Cc1cc([N+](=O)[O-])nn1CC(=O)Nc1cccc2nonc12,9.31%
2,COc1cc(/C=C/C(=O)c2c(O)n(CCc3ccccc3)c(=O)[nH]c2=O)ccc1O,16.7%
3,COc1cccc(C(=O)NCCS(=O)(=O)N2CCC(C)CC2)c1,3.89%
4,O=C(NCc1ccc2c(c1)OCO2)c1ccc2c(c1)OCCO2,10.5%
5,NC(=O)c1cc(S(=O)(=O)N2CC=C(c3ccccc3)CC2)cs1,-9.46%
6,CCSC(C)CC1CC(=O)CC(=O)C1 (stereo not drawn),-5.77%
7,C/C(=N\OC(=O)c1ccc(F)cc1)c1ccc(F)c(F)c1,13.1%
8,Cc1oc2c(c(C)cc3oc(=O)c(CC(=O)N[C@H](C(=O)O)C(C)C)c(C)c32)c1C,12.6%
9,Cc1oc2c(C)c3oc(=O)c(CC(=O)N[C@@H](CC(C)C)C(=O)N[C@@H](Cc4ccccc4)C(=O)O)c(C)c3cc2c1C,12.6%
10,COCCn1c(C)cc(C(=O)COC(=O)/C=C/c2cccc(OC)c2)c1C,5.98%
11,Cc1noc(C)c1COC(=O)CCCc1nc2ccccc2s1,-3.79%
12,O=S1(=O)CCOC[C@H](CC2CCCCC2)N1Cc1ccc(F)cc1,1.91%
13,CCN1C/C(=N\S(=O)(=O)/N=C2\CN(CC)C(=O)N2CC)N(CC)C1=O,14.6%
14,O=C(Nc1nccs1)c1ccc(CSc2ccccc2)o1,-0.64%
15,O=S(=O)(c1ccc(-c2ccon2)s1)N1CCN(CCN2CCOCC2)CC1,16.1%
16,COc1ccc(C2c3c(oc4ccccc4c3=O)C(=O)N2c2ccccn2)cc1 (stereo not drawn),7.17%
17,O=C(Cn1cnc2ccccc2c1=O)c1c[nH]c2ccccc12,6.38%
18,COc1ccc(N=C2SC(C(=O)Nc3ccc(C(=O)O)cc3)CC(=O)N2Cc2cccs2)cc1 (stereo not drawn),12.1%
19,COc1cc(C(=O)OCC(=O)NC(N)=O)cc(CN2C(=O)c3ccccc3C2=O)c1OC,8.8%
20,CC(C)N(C(=O)CSc1nnnn1-c1ccc2c(c1)OCO2)C(C)C,10.6%
21,Cc1ccc(SCC(=O)Nc2cccc(C(=O)NC(C)(C)C)c2)cc1,12.4%

row,Compound,"hERG current change (%, negative = inhibition) at 1uM"
1,CCC(/C=N/Nc1ccc(S(=O)(=O)N2CCCC2)cc1[N+](=O)[O-])CC,7.74%
2,Cc1ccc(C)c(C(=O)OCC(=O)N(C)c2ccccc2)c1,12.2%
3,O=C(COC(=O)c1cccc2ccccc12)NCC1CCCO1 (stereo not drawn),11.6%
4,CC(NC(=O)c1c(O)c2ccccc2n(C)c1=O)c1ccccc1 (stereo not drawn),6.56%
5,CC[C@H](C)[C@H]1O[C@]2(CC[C@@H]1C)C[C@@H]1C[C@@H](CC=C(C)[C@@H](O[C@H]3C[C@H](OC)[C@@H](O[C@H]4C[C@H](OC)[C@@H](O)[C@H](C)O4)[C@H](C)O3)[C@@H](C)C=CC=C3CO[C@@H]4[C@H](O)C(C)=C[C@@H](C(=O)O1)[C@]34O)O2,5.97%
6,O=C1NC(Cc2ccccc2)C(=O)Nc2ccc(Br)cc21 (stereo not drawn),5.81%
7,O=c1[nH]c(O)c(/C=C2/C=CC(c3cc(Cl)ccc3Cl)=N2)c(=O)[nH]1,11.9%
8,Cn1c2ccccc2c(=O)c2ccc(C#Cc3ccccn3)cc21,12.3%
9,CCc1nc2ccccc2c(NC(=O)CN2CC(C)CC(C)C2)c1C (stereo not drawn),8%
10,COc1ccccc1NC(=O)C(=O)N(c1cccnc1)C(C(=O)NC(C)(C)C)c1ccccc1F (stereo not drawn),17%
11,S=C(Nc1ccc(Cl)cc1)N1CCN(Cc2ccccc2)CC1,11.1%
12,CCOC(=O)c1cc2c(=O)n3cccc(C)c3nc2n(Cc2ccco2)c1=NC(=O)c1ccccc1,0.671%
13,Cc1ccc(NC(=O)N[C@@H](CC(C)C)C(=O)O)c(C)c1,17.7%
14,CN1C(=O)C(O)(CC(=O)c2cccc(-n3cccc3)c2)c2ccccc21 (stereo not drawn),6.67%
15,Cc1ccc(-c2cc(C(F)F)nc(S(C)(=O)=O)n2)cc1,5.34%
16,Cc1ccccc1C(=O)NC(CC(C)C)C(=O)Nc1ccc(S(N)(=O)=O)cc1 (stereo not drawn),14.5%
17,O=C(NCc1ccccc1)C1=C[C@H](c2ccc(C(F)(F)F)cc2)C[C@H](OCc2ccc(CO)cc2)O1,14.3%
18,CCOC(=O)c1cccc(NC(=O)CCc2nc(-c3ccccc3F)no2)c1,5.83%
19,COC(=O)C(CCSC)NC(=O)/C=C/c1ccc(OC)cc1 (stereo not drawn),13.1%
20,CC(NC1CCN(Cc2ccccc2)CC1)c1ccc(F)cc1 (stereo not drawn),16.2%
21,COc1ccc(NC(=O)c2ccc(CN3CCN(c4ccccc4)CC3)cc2)cc1,3.45%

# — article PMC4336329 (PLoS ONE, 2015)
